The text below walks through data of the supplement of paper PMC6135742.

“And” between values parts separate entries of the source, which are not always exact repeats. Identical values can stand only once. Counter-ions that a name gives are not always drawn. ± gives the standard deviation of the averaged measurements. The full ranking holds about 2,600 compounds; the median of “total cell number (DAPI+ nuclei) relative to DMSO vehicle control” is about -1.4, and the lowest 2% start at about -23. The list shows a part of the results.

This test relates to jimpy (Plp1 jimpy) mouse iPSC-derived oligodendrocyte progenitor cells. The test is described as follows: total cell number (DAPI+ nuclei) relative to DMSO vehicle control (SDs above negative control mean); higher = more surviving cells. As to conditions: 10 µM; 3 days.
As to `Clc1ccccc1CN1CCc2sccc2C1` [Ticlopidine HCl], the total cell number was 2.96.

`CN(C)CCCN1c2ccccc2CCc2ccc(Cl)cc21` [Clomipramine hydrochloride] yielded a total cell number of -8.36.

`CN(C)CCCN1c2ccccc2CCc2ccc(Cl)cc21` [Clomipramine HCl] returned a total cell number of -10.1. Then `COC(=O)N1CCN(Cc2cccc(NC(=O)Nc3ccc(C)nc3)c2F)CC1`, with 0.763. Consider `O=C1NC(=O)/C(=C\c2ccc3nccnc3c2)S1`, for which the total cell number is -1.42. Then `COC(=O)C1=C(C)NC(C)=C(C(=O)OC)C1c1ccccc1[N+](=O)[O-]` [Nifedipine], with -1.54 ± 0.42; and `CC(C)NC[C@H](O)COc1ccc(CCOCC2CC2)cc1` [Levobetaxolol HCl], with 0.39. Then `COc1cc2c(cc1O)CC[C@@H]1[C@@H]2CC[C@]2(C)[C@@H](O)CC[C@@H]12` [2-Methoxyestradiol (2-MeOE2)], with -10.2; and `COc1cc2c(cc1O)CC[C@@H]1[C@@H]2CC[C@]2(C)[C@@H](O)CC[C@@H]12` [2-methoxyestradiol], with -5.21; and `CNC(=O)[C@H]1O[C@@H](n2cnc3c(NCc4ccc(N)cc4)ncnc32)[C@H](O)[C@@H]1O`, with -0.313. To `COc1cc(N2CCN(C)CC2)ccc1Nc1nccc(-c2cn(C)c3cnccc23)n1` belongs -15.9. For `O=C(O)Cc1ccccc1Nc1c(Cl)cccc1Cl` [Diclofenac Potassium], the total cell number was -0.338.

In the case of `O=C(O)Cc1ccccc1Nc1c(Cl)cccc1Cl` [Diclofenac Sodium], the total cell number is -1.22. Then `O=C(O)Cc1ccccc1Nc1c(Cl)cccc1Cl` [Diclofenac Diethylamine], with 0.298.

In the case of `O=C(O)Cc1ccccc1Nc1c(Cl)cccc1Cl` [Diclofenac sodium], the total cell number was -2.2. Then `C[C@@H](c1ncncc1F)[C@](O)(Cn1cncn1)c1ccc(F)cc1F` [Voriconazole], with 0.679 ± 1.6. To `C[C@@H]1CC(=O)NN=C1c1ccc(NN=C(C#N)C#N)cc1` [Levosimendan] belongs -1.92; to `CNC(=O)c1ccc2cc([C@@]3(O)CCn4cncc43)ccc2c1` [TAK-700 (Orteronel)], 0.9. To `C[N+](C)(C)CCO.[Br-]` [Choline bromide] belongs -1.23. Turning to `N=c1ccn2c(n1)O[C@H]1[C@H](O)[C@@H](CO)O[C@H]12` [Ancitabine hydrochloride], the total cell number was -5.3.

`N=c1ccn2c(n1)O[C@H]1[C@H](O)[C@@H](CO)O[C@H]12` [Cyclocytidine HCl] gave a total cell number of -5.97.

With `CCCCCCCC/C=C\CCCCCCCC(=O)NCc1ccc(O)c(OC)c1` [Olvanil], the total cell number is -4.4.

The compound `CC(=O)Oc1cc(C(F)(F)F)ccc1C(=O)O` [Triflusal] registered a total cell number of -0.71 ± 1.2. Then `CC(C)Cc1ccc([C@H](C)C(=O)O)cc1` [S(+)-Ibuprofen], with 0.237.

The compound `CS(=O)(=O)c1ccc([C@@H](O)[C@@H](CO)NC(=O)C(Cl)Cl)cc1` [Thiamphenicol] displayed a total cell number of 0.863. Then `Cc1cncc(CN2CCC(=C3c4ccc(Cl)cc4CCc4cccnc43)CC2)c1` [Rupatadine Fumarate], with -10.9. Then `O=c1[nH]cc(F)c(=O)[nH]1` [5-Fluorouracil], with -9.71; and `O=c1[nH]cc(F)c(=O)[nH]1` [Fluorouracil (5-Fluoracil, 5-FU)], with -22.3. Compound `O=c1ncn2nc(Sc3ccc(F)cc3F)ccc2c1-c1c(Cl)cccc1Cl` gave a total cell number of -3.36. As to `C[C@]12C=CC(=O)C=C1CC[C@@H]1[C@@H]2[C@@H](O)C[C@@]2(C)[C@H]1CC[C@]2(O)C(=O)CO` [Prednisolone], the total cell number stood at 5.42.

The compound `Clc1ccc2c(c1)N=C(N1CCNCC1)c1ccccc1N2` [N-Desmethylclozapine] registered a total cell number of -5.78.

In turn, `CC(C)CCN1c2nc(Nc3cc(F)c(O)c(F)c3)ncc2N(C)C(=O)C1C` (stereo unspecified) yielded a total cell number of -9.12. Then `O=C1NC(=O)/C(=C/c2ccc(-c3ccc(F)cc3O)o2)S1`, with -4.56 ± 0.43; and `Cc1cnc(Nc2ccc(N3CCN(C)CC3)cc2)nc1Nc1cccc(S(=O)(=O)NC(C)(C)C)c1`, with -12.1; and `OC[C@@H](O)[C@@H](O)CO` [Erythritol], with 0.39. To `NC1(c2ccc(-c3nc4ccn5c(=O)[nH]nc5c4cc3-c3ccccc3)cc2)CCC1` belongs -25.6.

In turn, `Cc1ccccc1/C=C/C1=NCCN1` [Metrazoline oxalate] displayed a total cell number of -2.7.

With `Cc1cccc(-c2[nH]c(C(C)(C)C)nc2-c2ccc3nccnc3c2)n1`, the total cell number was -2.87 and -3.33. For the compound `NC(=O)c1noc([C@H](CCCC2CCCCC2)CC(=O)NO)n1`, the total cell number is -2.62. To `CC[N+](CC)(CC)CC` [Tetraethylammonium chloride] belongs 0.407. `COc1ccc(CCN(C)CCc2ccc(OC)c(OC)c2)cc1OC` [YS-035 hydrochloride] came in with a total cell number of 0.198. To `C[C@H](N[C@@H](CCc1ccccc1)C(=O)O)C(=O)N1CCC[C@H]1C(=O)O` [Enalaprilat Dihydrate] belongs -0.652. Then `C[C@H](N[C@@H](CCc1ccccc1)C(=O)O)C(=O)N1CCC[C@H]1C(=O)O` [Enalaprilat dihydrate], with -1.04; and `CCN(CC)CCNC(=O)c1ccc(NS(C)(=O)=O)cc1` [Sematilide monohydrochloride monohydrate], with -0.282; and `NC(=O)N1CCC(CC(=O)N2CCC([C@H]3c4ncc(Br)cc4CCc4cc(Cl)cc(Br)c43)CC2)CC1` [Lonafarnib], with -9.54. Then `CN(C)[C@@H]1C(O)=C(C(N)=O)C(=O)[C@@]2(O)C(O)=C3C(=O)c4c(O)cccc4[C@@](C)(O)[C@H]3C[C@@H]12` [Tetracycline HCl], with 1.62; and `O=C(O)C1CCCNC1` (racemic) [(±)-Nipecotic acid], with -1.95.

Compound `O=C(Nc1cc(C(F)(F)F)cc(C(F)(F)F)c1)c1cc(Cl)ccc1O` yielded a total cell number of -4.55. To `CC(C)(N)c1ncc(-c2ccc(OC(F)(F)F)cc2)[nH]1` belongs -3.28; to `O=C1/C(=C/c2cccs2)CC/C1=C\c1cccs1`, -1.85. Then `COCCCC/C(=N\OCCN)c1ccc(C(F)(F)F)cc1` [Fluvoxamine maleate], with -4.97 ± 5.2; and `COC(=O)[C@H](c1ccccc1Cl)N1CCc2sccc2C1` [Clopidogrel], with 3.22; and `C[C@]12CCC(=O)C=C1CC[C@@H]1[C@@H]2C(=O)C[C@@]2(C)[C@H]1CC[C@]2(O)C(=O)CO` [Cortisone], with -1.47.

Consider `O=C(COc1ccc(C(=O)c2ccccc2)cc1)NC1CCN(Cc2ccccc2)CC1` [AdipoRon], for which the total cell number stood at 1.46. Then `CC1(C)CCC(c2ccc(Cl)cc2)=C(CN2CCN(c3ccc(C(=O)NS(=O)(=O)c4ccc(N[C@H](CCN5CCOCC5)CSc5ccccc5)c(S(=O)(=O)C(F)(F)F)c4)cc3)CC2)C1` [ABT-263 (Navitoclax)], with -16.7; and `O=C(NOCC1CC1)c1ccc(F)c(F)c1Nc1ccc(I)cc1Cl`, with -11.8; and `Nc1nc(F)nc2c1ncn2[C@@H]1O[C@H](COP(=O)(O)O)[C@@H](O)[C@@H]1O` [Fludarabine Phosphate], with -8.7. Then `CCOC(=O)N1CCC(=C2c3ccc(Cl)cc3CCc3cccnc32)CC1` [Loratadine], with -0.828 ± 1.3; and `Oc1c(Br)cc(Br)c2cccnc12` [Broxyquinoline], with 0.775. Then `Nc1ccc2ncnc(NCCc3ccc(Oc4ccccc4)cc3)c2c1`, with -11. On to `CN1CCN(S(=O)(=O)c2ccc(-c3cnc(N)c(C(=O)Nc4cccnc4)n3)cc2)CC1`, for which the total cell number was -11. To `COc1ccc(-c2coc3cc(O)ccc3c2=O)cc1` [Formononetin] belongs 1.27; to `CS(=O)(=O)c1ccc(C(=O)Nc2ccc(Cl)c(-c3ccccn3)c2)c(Cl)c1` [Vismodegib (GDC-0449)], -1.63; to `COc1ccc(CC(C)NCC(O)c2ccc(O)c(NC=O)c2)cc1` (stereo unspecified) [Formoterol], -0.886. To `COc1ccc(CC(C)NCC(O)c2ccc(O)c(NC=O)c2)cc1` (stereo unspecified) [Formoterol Hemifumarate] belongs 2.35; to `CC(C)C[C@H](NC(=O)[C@H](Cc1ccccc1)NC(=O)c1cnccn1)B(O)O` [Bortezomib (PS-341)], -20.2; to `O=C(OCCN1CCOCC1)C1(c2ccccc2)CCCCC1`, -0.938. To `Cc1ccc2c(c1)C(=O)C1(O)CCN(c3ccccc3)C1=N2` (single isomer, unassigned; (-)) [(-)-Blebbistatin] belongs -14.8; to `CC(C)(Oc1ccc(CCNC(=O)c2ccc(Cl)cc2)cc1)C(=O)O` [Bezafibrate], 0.23 ± 0.27. As to `OCCN1CCN(CCCN2c3ccccc3Sc3ccc(C(F)(F)F)cc32)CC1` [Fluphenazine dihydrochloride], the total cell number is -7.98. Compound `c1ccc(CC2=NCCN2)cc1` [Tolazoline HCl] registered a total cell number of 0.39. With `NCCCCC(=O)O` [5-Aminovaleric acid hydrochloride], the total cell number was -2.24. To `O=C(O)CCc1nc(-c2ccccc2)c(-c2ccccc2)o1` [Oxaprozin] belongs -0.844 ± 0.56; to `Clc1ccc2c(c1)C(N1CCNCC1)=Nc1ccccc1O2` [Amoxapine], -5.64; to `O=C1c2ccccc2C(=O)C1c1ccccc1` [Phenindione], -0.616. To `CC(C)[C@@H](C)/C=C/[C@@H](C)[C@H]1CC[C@H]2C3=CC=C4C[C@@H](O)CC[C@]4(C)[C@H]3CC[C@]12C` [Ergosterol] belongs -0.31. Then `O=C(O)CCCc1c[nH]c2ccccc12` [3-Indolebutyric acid (IBA)], with -1.42; and `O=C(c1cc(Cc2n[nH]c(=O)c3ccccc23)ccc1F)N1CCN(C(=O)C2CC2)CC1`, with -9.61. For `CC[C@H]1OC(=O)[C@H](C)[C@@H](O[C@H]2C[C@@](C)(OC)[C@@H](O)[C@H](C)O2)[C@H](C)[C@@H](O[C@@H]2O[C@H](C)C[C@H](N(C)C)[C@H]2O)[C@](C)(O)C[C@@H](C)C(=O)[C@H](C)[C@@H](O)[C@]1(C)O` [Erythromycin], the total cell number was determined as 0.42.

In the case of `CC(C(=O)O)c1ccc(CC2CCCC2=O)cc1` (stereo unspecified) [loxoprofen], the total cell number was -0.593. To `CC1=C(/C=C/C(C)=C/C=C/C(C)=C/C=C/C=C(C)/C=C/C=C(C)/C=C/C2=C(C)CCCC2(C)C)C(C)(C)CCC1` [Beta Carotene] belongs -2.83.
